Data from publication PMC2828547.
Results are given in words; binding and its absence hold for the method and conditions named. For part of these data: Binding seen in cells or lysates may run through a third protein. Some entries that bind do so weakly or less than the wild type. For part of these data: Tags and fused reporters may be left off the sequences shown.

Amino acid sequences for entries named in this document (tags omitted).
UniProt Q08945: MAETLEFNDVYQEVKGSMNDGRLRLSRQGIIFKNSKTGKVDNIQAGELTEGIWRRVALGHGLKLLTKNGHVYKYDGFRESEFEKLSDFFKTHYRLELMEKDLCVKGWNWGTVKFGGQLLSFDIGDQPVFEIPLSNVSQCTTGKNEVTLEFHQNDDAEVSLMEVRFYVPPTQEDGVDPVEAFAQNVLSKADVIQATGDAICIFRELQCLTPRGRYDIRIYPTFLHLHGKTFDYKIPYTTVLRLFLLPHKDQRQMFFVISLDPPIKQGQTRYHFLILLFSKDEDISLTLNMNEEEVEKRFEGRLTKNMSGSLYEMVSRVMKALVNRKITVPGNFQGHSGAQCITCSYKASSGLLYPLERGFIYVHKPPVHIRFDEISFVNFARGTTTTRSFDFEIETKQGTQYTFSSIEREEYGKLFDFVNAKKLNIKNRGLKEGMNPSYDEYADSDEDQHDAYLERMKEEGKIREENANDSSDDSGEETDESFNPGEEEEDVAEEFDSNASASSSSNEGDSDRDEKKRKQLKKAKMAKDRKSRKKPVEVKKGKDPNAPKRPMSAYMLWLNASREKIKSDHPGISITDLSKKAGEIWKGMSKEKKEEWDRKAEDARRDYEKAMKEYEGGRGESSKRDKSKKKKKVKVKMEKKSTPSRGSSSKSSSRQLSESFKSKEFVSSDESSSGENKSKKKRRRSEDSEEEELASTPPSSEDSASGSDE
UniProt Q9Y5B9: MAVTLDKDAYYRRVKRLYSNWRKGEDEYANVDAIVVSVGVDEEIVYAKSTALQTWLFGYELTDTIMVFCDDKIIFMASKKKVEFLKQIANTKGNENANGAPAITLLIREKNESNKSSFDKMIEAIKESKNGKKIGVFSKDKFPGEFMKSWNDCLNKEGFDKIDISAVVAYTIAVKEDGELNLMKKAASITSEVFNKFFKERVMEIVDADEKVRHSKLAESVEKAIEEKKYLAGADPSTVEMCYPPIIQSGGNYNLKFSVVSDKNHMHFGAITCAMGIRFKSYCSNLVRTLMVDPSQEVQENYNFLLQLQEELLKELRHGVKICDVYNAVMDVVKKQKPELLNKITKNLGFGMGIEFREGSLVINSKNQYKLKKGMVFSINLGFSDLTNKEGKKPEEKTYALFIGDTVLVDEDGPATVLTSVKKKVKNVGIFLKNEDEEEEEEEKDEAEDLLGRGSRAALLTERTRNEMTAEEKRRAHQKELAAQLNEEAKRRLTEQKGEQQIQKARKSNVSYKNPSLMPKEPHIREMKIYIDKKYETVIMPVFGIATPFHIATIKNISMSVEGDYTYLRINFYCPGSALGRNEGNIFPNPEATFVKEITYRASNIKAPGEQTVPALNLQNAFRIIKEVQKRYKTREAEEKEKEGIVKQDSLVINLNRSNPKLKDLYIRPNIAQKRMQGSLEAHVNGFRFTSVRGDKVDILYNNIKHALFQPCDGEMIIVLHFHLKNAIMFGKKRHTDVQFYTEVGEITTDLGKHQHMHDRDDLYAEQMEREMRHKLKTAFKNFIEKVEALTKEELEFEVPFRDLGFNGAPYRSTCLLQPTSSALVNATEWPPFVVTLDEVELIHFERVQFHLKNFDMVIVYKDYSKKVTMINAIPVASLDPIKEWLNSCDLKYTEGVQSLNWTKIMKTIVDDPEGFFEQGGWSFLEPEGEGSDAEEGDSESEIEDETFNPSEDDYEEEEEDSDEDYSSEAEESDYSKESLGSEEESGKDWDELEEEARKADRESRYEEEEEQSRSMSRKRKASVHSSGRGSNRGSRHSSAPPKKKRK

Assays:
[1] = target: T1, GST-NXF1-p15 (UniProt Q9UBU9); assay: pull-down; competition: GST-NXF1-p15 complexed with GB1-UIF, increasing amounts of GB1-6His-REF2-I; Coomassie staining; both purified
T1 sequence 1: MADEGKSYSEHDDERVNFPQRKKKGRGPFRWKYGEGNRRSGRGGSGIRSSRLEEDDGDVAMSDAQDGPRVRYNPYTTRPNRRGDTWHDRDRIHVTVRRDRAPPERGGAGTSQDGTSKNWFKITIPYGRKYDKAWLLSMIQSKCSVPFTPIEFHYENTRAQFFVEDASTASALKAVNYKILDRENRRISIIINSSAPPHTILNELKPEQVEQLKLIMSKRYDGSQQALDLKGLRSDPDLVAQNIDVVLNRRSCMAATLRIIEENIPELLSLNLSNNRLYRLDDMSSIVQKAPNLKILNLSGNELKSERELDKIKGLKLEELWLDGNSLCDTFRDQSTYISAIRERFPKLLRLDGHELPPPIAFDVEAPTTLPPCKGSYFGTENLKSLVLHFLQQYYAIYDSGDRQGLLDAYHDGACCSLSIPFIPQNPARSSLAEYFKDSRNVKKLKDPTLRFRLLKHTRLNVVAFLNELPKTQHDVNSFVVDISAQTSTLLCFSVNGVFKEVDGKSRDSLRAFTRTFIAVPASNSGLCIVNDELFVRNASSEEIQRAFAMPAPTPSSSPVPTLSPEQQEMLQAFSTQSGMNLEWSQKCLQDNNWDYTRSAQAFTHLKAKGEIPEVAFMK
T1 sequence 2: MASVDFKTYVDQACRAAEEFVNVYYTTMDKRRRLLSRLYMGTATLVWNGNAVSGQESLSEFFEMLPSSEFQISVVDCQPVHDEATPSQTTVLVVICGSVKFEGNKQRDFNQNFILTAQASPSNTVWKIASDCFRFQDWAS

[2] = target: T2, FLAG-UIF (human) (UniProt Q96QD9); assay: co-IP; FLAG-UIF immunoprecipitates probed by western blot with the indicated antibodies
T2 sequence: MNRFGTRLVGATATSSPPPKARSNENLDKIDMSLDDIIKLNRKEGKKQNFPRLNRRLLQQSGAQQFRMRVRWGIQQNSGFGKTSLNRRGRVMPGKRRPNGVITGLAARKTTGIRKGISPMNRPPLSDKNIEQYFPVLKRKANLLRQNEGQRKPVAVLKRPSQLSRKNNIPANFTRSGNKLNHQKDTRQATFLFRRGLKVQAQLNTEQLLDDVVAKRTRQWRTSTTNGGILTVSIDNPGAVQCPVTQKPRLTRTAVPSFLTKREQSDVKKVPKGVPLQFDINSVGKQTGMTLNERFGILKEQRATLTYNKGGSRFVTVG

[3] = target: FLAG-REF2-I (UniProt Q9JJW6); assay: co-IP; FLAG-REF2-I fusions and UAP56-Myc expressed in 293T cells; immunoprecipitation with the FLAG antibody, detection with FLAG and Myc antibodies
[4] = target: FLAG-REF2-I lacking amino acids 1-15 (UniProt Q9JJW6); assay: as above
[5] = target: FLAG-REF2-I lacking amino acids 1-15 and 198-218 (UniProt Q9JJW6); assay: as above
[6] = target: FLAG-REF2-I lacking amino acids 198-218 (UniProt Q9JJW6); assay: as above
[7] = target: T2, FLAG-UIF (human); assay: co-IP; FLAG-UIF with Myc-tagged NXF1 or UAP56; immunoprecipitation with FLAG antibody, detection with FLAG and Myc antibodies; with and without RNase
[8] = target: T2, FLAG-UIF (human); assay: co-IP; FLAG-UIF and Myc UAP56, FLAG immunoprecipitation in the presence of increasing amounts of recombinant NXF1-p15 (GST as control); detection with the 9E10 Myc antibody

With “GB1-6His-REF2-I (from UniProt Q9JJW6 1-218)” the binding [1] was “binds”.
With “SSRP1 (endogenous) (from UniProt Q08945 1-709)” the binding [2] was “binds”.
With UAP56-Myc (from UniProt Q13838 1-428) the binding [3] was “binds”, the binding [4] was “binds” and the binding [5] was “no binding”. For the same substance, the binding [6] was “binds”, the binding [7] was “binds” and the binding [8] was “binds”.
For “SPT16 (endogenous) (from UniProt Q9Y5B9 1-1047)”, the binding [2] was “binds”.
